Results: PMC10668032
Some of the results follow. At the low end of the ranking the order means little.

What follows are sequences tested against SIX1 homeodomain (reference allele) (UniProt Q15475) (assay: universal protein binding microarray). Details: Universal all-10-mer PBM (8x60K, AMADID 030236), 300 nM GST-tagged protein, Alexa Fluor 488 anti-GST; buffer, salt, pH and temperature not stated; high values mean tight binding; most listed sequences are background and not binding sites; double strand, one strand shown.
With CCACTGAA the binding signal was -0.0419 E-score.
With CCGGGACG the binding signal was -0.0563 E-score.
CTCAGCCC was tested, and the binding signal was -0.191 E-score.
GAATAGGC gave a binding signal of -0.152 E-score.
Sequence AATCTAAA has a binding signal of -0.111 E-score.
Work on CAGCTAAC yielded a binding signal of -0.135 E-score.
Work on CGTTTGAA yielded a binding signal of -0.0361 E-score.
Sequence TATAGATA has a binding signal of 0.347 E-score.
In the case of CCCGGTCG, the binding signal is reported as 0.0848 E-score.
CGAAAGAC was tested, and the binding signal was -0.376 E-score.
For ATGTAAAT, the binding signal was -0.0187 E-score.
For AACAGGAC, the binding signal was -0.217 E-score.
With CATTATAA the binding signal was 0.0163 E-score.
ACGCCATA showed a binding signal of 0.151 E-score.
With GCAAGGTA the binding signal was -0.0989 E-score.
CTTTACCC was tested, and the binding signal was 0.0507 E-score.
With ATTACAAT the binding signal was -0.0225 E-score.
AGAAACCT was tested, and the binding signal was 0.0669 E-score.
GAGCATCC gave a binding signal of 0.0158 E-score.
Sequence AATGGGAG has a binding signal of -0.194 E-score.
For AATATCAC, the binding signal was 0.38 E-score.
CAACGAAA gave a binding signal of -0.0394 E-score.
Work on GCCTGAGA yielded a binding signal of -0.0184 E-score.
With CGATGAAA the binding signal was -0.114 E-score.
ACGCCGTC showed a binding signal of -0.00732 E-score.
GCGCTAGC showed a binding signal of -0.36 E-score.
In the case of ATAATCCC, the binding signal is reported as 0.368 E-score.
Sequence AAGCGTGT has a binding signal of -0.215 E-score.
With CTAGCGGA the binding signal was -0.299 E-score.
With CGGCTCAC the binding signal was 0.174 E-score.
In the case of ACAGTGAC, the binding signal is reported as -0.00771 E-score.
TCGTCGAA was tested, and the binding signal was -0.278 E-score.
GACATAGA showed a binding signal of -0.168 E-score.
GGCGTGAA was tested, and the binding signal was -0.0462 E-score.
ACAGTAGC gave a binding signal of -0.306 E-score.
Work on CTTTCCGA yielded a binding signal of -0.116 E-score.
TGAGTGAA was tested, and the binding signal was -0.0636 E-score.
GGCTCGAC was tested, and the binding signal was -0.0764 E-score.
In the case of CTCCGAAG, the binding signal is reported as 0.0719 E-score.
With CAAACCTC the binding signal was -0.164 E-score.
ATTGCATC showed a binding signal of -0.0427 E-score.
Sequence CCGTGACA has a binding signal of 0.11 E-score.
Sequence ACATCTTA has a binding signal of -0.169 E-score.
With ATCCACAA the binding signal was 0.256 E-score.
Sequence GCTCAACC has a binding signal of -0.0824 E-score.
ACTCCATG showed a binding signal of 0.0786 E-score.
Sequence GAGGTTTA has a binding signal of 0.101 E-score.
ACTTCACT gave a binding signal of -0.171 E-score.
Work on AGACCAGA yielded a binding signal of 0.0871 E-score.
ATGAACTG gave a binding signal of -0.104 E-score.
Sequence AGAACGAA has a binding signal of 0.0098 E-score.
Sequence CCGTGGAA has a binding signal of -0.0909 E-score.
In the case of CGTTGTCC, the binding signal is reported as -0.142 E-score.
With ATTTGGTC the binding signal was -0.137 E-score.
ATTATGGC was tested, and the binding signal was 0.125 E-score.
Work on GATGAAAA yielded a binding signal of -0.0623 E-score.
AGTCTGAC showed a binding signal of -0.0773 E-score.
In the case of GCTAATTA, the binding signal is reported as -0.122 E-score.
Sequence GATTCACC has a binding signal of -0.0667 E-score.
With GCCGCCAA the binding signal was -0.317 E-score.
CCCGTACG showed a binding signal of 0.0056 E-score.
For GCATTCCA, the binding signal was -0.127 E-score.
Work on ATCGACAA yielded a binding signal of 0.0887 E-score.
For CCGGTTAA, the binding signal was -0.0542 E-score.
Work on TAAGTGAA yielded a binding signal of 0.0328 E-score.
AAGAATTA was tested, and the binding signal was -0.241 E-score.
Sequence CGGGGAGA has a binding signal of 0.182 E-score.
With CAGTCCCG the binding signal was -0.217 E-score.
ATCCAATA showed a binding signal of 0.255 E-score.
CAATTTAG was tested, and the binding signal was 0.0138 E-score.
CTGTGCCC was tested, and the binding signal was -0.0384 E-score.
CCCTGATC was tested, and the binding signal was 0.33 E-score.
Work on ACTCCGGC yielded a binding signal of -0.12 E-score.
CCCCAAGG showed a binding signal of 0.0389 E-score.
Work on TCCGTCCA yielded a binding signal of 0.0778 E-score.
ATCAGAGA was tested, and the binding signal was 0.225 E-score.
TAGTGCGA gave a binding signal of -0.158 E-score.
Work on CCGGGGAA yielded a binding signal of -0.109 E-score.
AAAATACT showed a binding signal of 0.0214 E-score.
In the case of CCAATTTC, the binding signal is reported as -0.151 E-score.
AATCAATG gave a binding signal of -0.143 E-score.
In the case of CGTGTCCC, the binding signal is reported as -0.0253 E-score.
GACAGGGC gave a binding signal of -0.159 E-score.
In the case of AAGCCTAG, the binding signal is reported as -0.0716 E-score.
Sequence CAATTGTC has a binding signal of -0.135 E-score.
Sequence TCAACACA has a binding signal of -0.0488 E-score.
With CTTCTGAC the binding signal was -0.259 E-score.
Sequence GACAGGTC has a binding signal of -0.186 E-score.
With AGCCAATA the binding signal was -0.047 E-score.
Work on AAATAACC yielded a binding signal of -0.184 E-score.
Work on AACCTTGA yielded a binding signal of -0.00602 E-score.
AGAAAAAG was tested, and the binding signal was -0.172 E-score.
For CCTCGTCA, the binding signal was -0.114 E-score.
CTTATAAC showed a binding signal of 0.0489 E-score.
In the case of AACACCGT, the binding signal is reported as 0.211 E-score.
CGATCGCC gave a binding signal of 0.257 E-score.
For CCGGTACG, the binding signal was -0.149 E-score.
In the case of ATAAGTTC, the binding signal is reported as -0.0219 E-score.
CACGGCAC gave a binding signal of -0.0924 E-score.
In the case of AGTGTTGG, the binding signal is reported as 0.00725 E-score.
GACTCGGC showed a binding signal of -0.158 E-score.
CGCTATCA was tested, and the binding signal was 0.34 E-score.
Work on ACCTGTGC yielded a binding signal of -0.174 E-score.
CCCATATA showed a binding signal of 0.309 E-score.
With AAGTACTG the binding signal was -0.18 E-score.
With CCGGAAGG the binding signal was -0.0607 E-score.
Work on AGTGGCAT yielded a binding signal of -0.166 E-score.
Sequence ACATTGAC has a binding signal of -0.0392 E-score.
Sequence ATACTCAG has a binding signal of 0.35 E-score.
Work on ACCCTCTA yielded a binding signal of 0.00043 E-score.
CCAGCATC was tested, and the binding signal was -0.0919 E-score.
TAGTGGCA gave a binding signal of -0.0942 E-score.
CAGATGAC showed a binding signal of -0.0271 E-score.
GATTGGTA gave a binding signal of 0.187 E-score.
GTGCTAAC gave a binding signal of -0.141 E-score.
In the case of GATTCCGA, the binding signal is reported as 0.0823 E-score.
CGACTAAG gave a binding signal of -0.0501 E-score.
For CCAGCCGA, the binding signal was -0.114 E-score.
Work on AAATCCAA yielded a binding signal of -0.106 E-score.
AAACGGCG gave a binding signal of -0.115 E-score.
For GAAACAAC, the binding signal was -0.0446 E-score.
In the case of CATTAGTA, the binding signal is reported as 0.0553 E-score.
ATATCCGC showed a binding signal of 0.43 E-score.
Sequence AAACGATT has a binding signal of -0.112 E-score.
With ATTTGTTG the binding signal was -0.0928 E-score.
Sequence GCCTTGAC has a binding signal of -0.191 E-score.
With GAGGAAGC the binding signal was -0.161 E-score.
GTCGGCCA was tested, and the binding signal was -0.246 E-score.
CAAACCCG was tested, and the binding signal was 0.174 E-score.
With CAGTCAGG the binding signal was -0.19 E-score.
With AGTCGTTA the binding signal was -0.169 E-score.
Work on TCGTAGCA yielded a binding signal of -0.00509 E-score.
AAACAGTT was tested, and the binding signal was -0.319 E-score.
Work on CCTAAGCC yielded a binding signal of 0.0673 E-score.
CGCTCCTC showed a binding signal of -0.142 E-score.
With ACGACCAT the binding signal was -0.0269 E-score.
In the case of GATAGTGC, the binding signal is reported as 0.258 E-score.
AGGCGCCG was tested, and the binding signal was -0.246 E-score.
In the case of CCGGGGCG, the binding signal is reported as 0.152 E-score.
AAATGCGA was tested, and the binding signal was -0.0358 E-score.
Work on AATTAAAT yielded a binding signal of -0.0903 E-score.
GCAGGGGC showed a binding signal of -0.11 E-score.
Work on GCTCCAAC yielded a binding signal of -0.195 E-score.
ACTAATAG was tested, and the binding signal was 0.000975 E-score.
ACACGCAA showed a binding signal of 0.0232 E-score.
AGAGGGGC was tested, and the binding signal was -0.0242 E-score.
In the case of CACAGCCA, the binding signal is reported as -0.0169 E-score.
Sequence CAGTCAAC has a binding signal of -0.274 E-score.
With ACGGGGTA the binding signal was 0.134 E-score.
For ATGAGAAT, the binding signal was 0.112 E-score.
AAACTATA gave a binding signal of 0.137 E-score.
ACTATACA was tested, and the binding signal was 0.215 E-score.
ACAATATA gave a binding signal of 0.164 E-score.
AACAAGAT showed a binding signal of 0.106 E-score.
Work on ACACACGA yielded a binding signal of -0.0491 E-score.
CGCCTGAG was tested, and the binding signal was -0.0339 E-score.
Sequence ACAGGGGG has a binding signal of -0.0607 E-score.
AAAGACTG showed a binding signal of -0.115 E-score.
In the case of AAGTTACA, the binding signal is reported as -0.12 E-score.
For ACGAGCGG, the binding signal was -0.0982 E-score.
CCGAAGAA was tested, and the binding signal was -0.19 E-score.
GGATAGTA was tested, and the binding signal was 0.332 E-score.
For AGTGGTAA, the binding signal was -0.195 E-score.
CGGAAGAG gave a binding signal of -0.134 E-score.
With ATGCGCCC the binding signal was -0.0158 E-score.
GCGCGCTA showed a binding signal of -0.161 E-score.
Work on ATTGGTGG yielded a binding signal of -0.0194 E-score.
AACCACAT gave a binding signal of -0.102 E-score.
CATATTCC showed a binding signal of 0.0359 E-score.
Work on CTCCCCAC yielded a binding signal of -0.0269 E-score.
For AAGGCAAA, the binding signal was -0.157 E-score.
AGATCGAA gave a binding signal of 0.111 E-score.
